Measurements taken from the supplement of paper PMC8728848.
The other results are listed elsewhere or left out.

What was measured:
Experiment in all cases: glycan array binding signal (z-score within array); higher = stronger binding
Settings in all cases: glycan notation: IUPAC condensed, linker removed
[1] = biological target: Neu5Ac(a2-3)Gal(b1-4)GlcNAc(b1-6)GalNAc
Method in brief: (§1)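 Negative Z-scores can be read as non-binding. The Z-score is calculated within each array and then averaged across arrays of one protein sequence at different concentrations or buffers and across linkers. Arrays, 3228 in all, were curated from the Consortium for Functional Glycomics database and kept only where the protein sequence was available.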

[2] = biological target: Neu5Ac(a2-3)Gal(b1-4)GlcNAc(b1-6)[Gal(b1-3)]GalNAc
Method in brief: as §1

[3] = biological target: Neu5Ac(a2-3)Gal(b1-4)GlcNAc(b1-6)[Neu5Ac(a2-3)Gal(b1-3)]GalNAc
Method in brief: as §1

[4] = biological target: Neu5Ac(a2-3)Gal(b1-4)GlcNAc6S
Method in brief: as §1

[5] = biological target: Neu5Ac(a2-3)Gal(b1-4)[Fuc(a1-3)]GlcNAc
Method in brief: as §1

[6] = biological target: Neu5Ac(a2-3)Gal(b1-4)[Fuc(a1-3)]GlcNAc(b1-2)Man
Method in brief: as §1

[7] = biological target: Neu5Ac(a2-3)Gal(b1-4)[Fuc(a1-3)]GlcNAc(b1-3)Gal
Method in brief: as §1

[8] = biological target: Neu5Ac(a2-3)Gal(b1-4)[Fuc(a1-3)]GlcNAc(b1-3)Gal(b1-4)GlcNAc
Method in brief: as §1

[9] = biological target: Neu5Ac(a2-3)Gal(b1-4)[Fuc(a1-3)]GlcNAc(b1-3)Gal(b1-4)[Fuc(a1-3)]GlcNAc(b1-3)Gal(b1-4)[Fuc(a1-3)]GlcNAc
Method in brief: as §1

[10] = biological target: Neu5Ac(a2-3)Gal(b1-4)[Fuc(a1-3)]GlcNAc(b1-3)GalNAc
Method in brief: as §1

[11] = biological target: Neu5Ac(a2-3)Gal(b1-4)[Fuc(a1-3)]GlcNAc(b1-6)[Gal(b1-3)]GalNAc
Method in brief: as §1

[12] = biological target: Neu5Ac(a2-3)Gal(b1-4)[Fuc(a1-3)]GlcNAc(b1-6)[Neu5Ac(a2-3)Gal(b1-3)]GalNAc
Method in brief: as §1

[13] = biological target: Neu5Ac(a2-3)Gal(b1-4)[Fuc(a1-3)]GlcNAc6S
Method in brief: as §1

[14] = biological target: Neu5Ac(a2-3)Gal6S(b1-4)GlcNAc
Method in brief: as §1

[15] = biological target: Neu5Ac(a2-3)Gal6S(b1-4)[Fuc(a1-3)]GlcNAc
Method in brief: as §1

Neu5Ac(a2-3)GalNAc = biological target: Neu5Ac(a2-3)GalNAc
Method in brief: as §1

[16] = biological target: Neu5Ac(a2-3)GalNAc(b1-4)GlcNAc
Method in brief: as §1

[17] = biological target: Neu5Ac(a2-3)[GalNAc(b1-4)]Gal(b1-4)Glc
Method in brief: as §1

[18] = biological target: Neu5Ac(a2-3)[GalNAc(b1-4)]Gal(b1-4)GlcNAc
Method in brief: as §1

[19] = biological target: Neu5Ac(a2-3)[GalNAc(b1-4)]Gal(b1-4)GlcNAc(b1-3)GalNAc
Method in brief: as §1

[20] = biological target: Neu5Ac(a2-3)[Neu5Ac(a2-6)]GalNAc
Method in brief: as §1

Neu5Ac(a2-6)Gal = biological target: Neu5Ac(a2-6)Gal
Method in brief: as §1

[21] = biological target: Neu5Ac(a2-6)Gal(b1-3)GlcNAc(b1-3)[Gal(b1-4)GlcNAc(b1-6)]Gal(b1-4)Glc
Method in brief: as §1

Neu5Ac(a2-6)Gal(b1-4)Glc = biological target: Neu5Ac(a2-6)Gal(b1-4)Glc
Method in brief: as §1

[22] = biological target: Neu5Ac(a2-6)Gal(b1-4)GlcNAc
Method in brief: as §1

[23] = biological target: Neu5Ac(a2-6)Gal(b1-4)GlcNAc(b1-2)Man
Method in brief: as §1

[24] = biological target: Neu5Ac(a2-6)Gal(b1-4)GlcNAc(b1-2)Man(a1-3)Man(b1-4)GlcNAc(b1-4)GlcNAc
Method in brief: as §1

[25] = biological target: Neu5Ac(a2-6)Gal(b1-4)GlcNAc(b1-2)Man(a1-3)[Gal(b1-4)GlcNAc(b1-2)Man(a1-6)]Man(b1-4)GlcNAc(b1-4)GlcNAc
Method in brief: as §1

[26] = biological target: Neu5Ac(a2-6)Gal(b1-4)GlcNAc(b1-2)Man(a1-3)[GlcNAc(b1-2)Man(a1-6)]Man(b1-4)GlcNAc(b1-4)GlcNAc
Method in brief: as §1

[27] = biological target: Neu5Ac(a2-6)Gal(b1-4)GlcNAc(b1-2)Man(a1-3)[GlcNAc(b1-4)][Neu5Ac(a2-6)Gal(b1-4)GlcNAc(b1-2)Man(a1-6)]Man(b1-4)GlcNAc(b1-4)GlcNAc
Method in brief: as §1

[28] = biological target: Neu5Ac(a2-6)Gal(b1-4)GlcNAc(b1-2)Man(a1-3)[Man(a1-6)]Man(b1-4)GlcNAc(b1-4)GlcNAc
Method in brief: as §1

B1: Cohesin-mDCIR (Macaca mulatta) (protein)
chain: GLDDLDAVRIKVDTVNAKPGDTVRIPVRFSGIPSKGIANCDFVYSYDPNVLEIIEIEPGDIIVDPNPDKSFDTAVYPDRKIIVFLFAEDSGTGAYAITKDGVFATIVAKVKEGAPNGLSVIKFVEVGGFANNDLVEQKTQFFDGGVNVGDTTEPATPTTPVTTPTTTDDLDAASFQKYSQLLEKMTTKDLVHTTLECVKKNMTTEETAWSCCPKNWKPFSSNCYFISTESASWQKSEKDCARMEAHLLVINTREEQDFIFQNLQEESAYFVGLSDPEGQRHWQWVDRTPYNESSTFWHPHEPSDPDERCVVLNFRKTPKRWGWNDVHCIVHQRSVCEMMKIHLHHHHHH
Question: With B1 as the binder, how does the “glycan array binding signal (z-score)” value [1] read?
Answer: 1.08

Question: What about the “glycan array binding signal (z-score)” value [2] of the same binder?
Answer: -0.381

Question: And the “glycan array binding signal (z-score)” value [3]?
Answer: -0.475

Question: What about the “glycan array binding signal (z-score)” value [4] of the same binder?
Answer: -0.281

Question: What about the “glycan array binding signal (z-score)” value [5] of the same binder?
Answer: -0.35

Question: What about the “glycan array binding signal (z-score)” value [6] of the same binder?
Answer: -0.354

Question: And the “glycan array binding signal (z-score)” value [7]?
Answer: -0.387

Question: What about the “glycan array binding signal (z-score)” value [8] of the same binder?
Answer: -0.286

Question: What about the “glycan array binding signal (z-score)” value [9] of the same binder?
Answer: -0.409

Question: And the “glycan array binding signal (z-score)” value [10]?
Answer: -0.091

Question: And the “glycan array binding signal (z-score)” value [11]?
Answer: -0.232

Question: And the “glycan array binding signal (z-score)” value [12]?
Answer: -0.363

Question: What about the “glycan array binding signal (z-score)” value [13] of the same binder?
Answer: -0.425

Question: What about the “glycan array binding signal (z-score)” value [14] of the same binder?
Answer: -0.433

Question: What about the “glycan array binding signal (z-score)” value [15] of the same binder?
Answer: -0.246

Question: And the “glycan array binding signal (z-score)” value (Neu5Ac(a2-3)GalNAc)?
Answer: -0.315

Question: What about the “glycan array binding signal (z-score)” value [16] of the same binder?
Answer: -0.325

Question: What about the “glycan array binding signal (z-score)” value [17] of the same binder?
Answer: 0.257

Question: And the “glycan array binding signal (z-score)” value [18]?
Answer: -0.245

Question: And the “glycan array binding signal (z-score)” value [19]?
Answer: -0.353

Question: What about the “glycan array binding signal (z-score)” value [20] of the same binder?
Answer: -0.232

Question: What about the “glycan array binding signal (z-score)” value (Neu5Ac(a2-6)Gal) of the same binder?
Answer: -0.425

Question: What about the “glycan array binding signal (z-score)” value [21] of the same binder?
Answer: 0.28

Question: And the “glycan array binding signal (z-score)” value (Neu5Ac(a2-6)Gal(b1-4)Glc)?
Answer: -0.423

Question: And the “glycan array binding signal (z-score)” value [22]?
Answer: -0.311

Question: What about the “glycan array binding signal (z-score)” value [23] of the same binder?
Answer: -0.208

Question: And the “glycan array binding signal (z-score)” value [24]?
Answer: -0.373

Question: What about the “glycan array binding signal (z-score)” value [25] of the same binder?
Answer: -0.37

Question: And the “glycan array binding signal (z-score)” value [26]?
Answer: -0.463

Question: What about the “glycan array binding signal (z-score)” value [27] of the same binder?
Answer: -0.253

Question: What about the “glycan array binding signal (z-score)” value [28] of the same binder?
Answer: -0.443
